Assay results: a compilation of properties of binary mixtures (doi:10.1021/acs.jced.9b01103)
Some of these densities may be calculated back from excess volumes.

Assay: xn = mol fraction of the nth substance listed
Conditions: 96.7 kPa

CS(C)=O + CC(=O)[O-].CCCC[n+]1ccn(C)c1
mass density (303.15 K, x2 = 0): 1090.3 kg/m3 | mass density (308.15 K, x2 = 0): 1085.3 kg/m3 | mass density (313.15 K, x2 = 0): 1080.3 kg/m3 | mass density (318.15 K, x2 = 0): 1075.3 kg/m3 | mass density (323.15 K, x2 = 0): 1070.4 kg/m3 | mass density (328.15 K, x2 = 0): 1065.4 kg/m3 | mass density (333.15 K, x2 = 0): 1060.4 kg/m3 | mass density (343.15 K, x2 = 0): 1050.3 kg/m3 | mass density (348.15 K, x2 = 0): 1045.4 kg/m3

CC(=O)[O-].CCCC[n+]1ccn(C)c1 + CS(C)=O
mass density (303.15 K, x1 = 0.21): 1075.7 kg/m3 | mass density (303.15 K, x1 = 0.285): 1072.2 kg/m3 | mass density (303.15 K, x1 = 0.369): 1068.2 kg/m3 | mass density (303.15 K, x1 = 0.478): 1062.9 kg/m3 | mass density (303.15 K, x1 = 0.606): 1057.7 kg/m3 | mass density (303.15 K, x1 = 0.789): 1051.8 kg/m3 | mass density (303.15 K, x1 = 0.884): 1049.1 kg/m3 | mass density (303.15 K, x1 = 1): 1046.3 kg/m3 | mass density (308.15 K, x1 = 0.285): 1068.3 kg/m3 | mass density (308.15 K, x1 = 0.369): 1064.5 kg/m3 | mass density (308.15 K, x1 = 0.478): 1059.4 kg/m3 | mass density (308.15 K, x1 = 0.606): 1054.4 kg/m3 | mass density (308.15 K, x1 = 0.789): 1048.7 kg/m3 | mass density (308.15 K, x1 = 0.884): 1046 kg/m3 | mass density (308.15 K, x1 = 1): 1043.3 kg/m3 | mass density (313.15 K, x1 = 0.21): 1067.5 kg/m3 | mass density (313.15 K, x1 = 0.285): 1064.5 kg/m3 | mass density (313.15 K, x1 = 0.369): 1060.9 kg/m3 | mass density (313.15 K, x1 = 0.478): 1055.9 kg/m3 | mass density (313.15 K, x1 = 0.606): 1051.1 kg/m3 | mass density (313.15 K, x1 = 0.789): 1045.5 kg/m3 | mass density (313.15 K, x1 = 0.884): 1043 kg/m3 | mass density (313.15 K, x1 = 1): 1040.3 kg/m3 | mass density (318.15 K, x1 = 0.285): 1060.4 kg/m3 | mass density (318.15 K, x1 = 0.369): 1057.2 kg/m3 | mass density (318.15 K, x1 = 0.478): 1052.4 kg/m3 | mass density (318.15 K, x1 = 0.789): 1042.4 kg/m3 | mass density (318.15 K, x1 = 1): 1037.4 kg/m3 | mass density (323.15 K, x1 = 0.21): 1059.4 kg/m3 | mass density (323.15 K, x1 = 0.369): 1053.6 kg/m3 | mass density (323.15 K, x1 = 0.478): 1048.9 kg/m3 | mass density (323.15 K, x1 = 0.606): 1044.4 kg/m3 | mass density (323.15 K, x1 = 0.789): 1039.2 kg/m3 | mass density (323.15 K, x1 = 0.884): 1036.8 kg/m3 | mass density (323.15 K, x1 = 1): 1034.4 kg/m3 | mass density (328.15 K, x1 = 0.21): 1055.3 kg/m3 | mass density (328.15 K, x1 = 0.369): 1050 kg/m3 | mass density (328.15 K, x1 = 0.478): 1045.4 kg/m3 | mass density (328.15 K, x1 = 0.789): 1036.1 kg/m3 | mass density (328.15 K, x1 = 0.884): 1033.8 kg/m3 | mass density (328.15 K, x1 = 1): 1031.4 kg/m3 | mass density (333.15 K, x1 = 0.21): 1051.2 kg/m3 | mass density (333.15 K, x1 = 0.369): 1046.3 kg/m3 | mass density (333.15 K, x1 = 0.478): 1042 kg/m3 | mass density (333.15 K, x1 = 0.606): 1037.8 kg/m3 | mass density (333.15 K, x1 = 0.789): 1033 kg/m3 | mass density (333.15 K, x1 = 0.884): 1030.8 kg/m3 | mass density (333.15 K, x1 = 1): 1028.5 kg/m3 | mass density (338.15 K, x1 = 0.21): 1047.1 kg/m3 | mass density (338.15 K, x1 = 0.285): 1045.1 kg/m3 | mass density (338.15 K, x1 = 0.369): 1042.7 kg/m3 | mass density (338.15 K, x1 = 0.478): 1038.5 kg/m3 | mass density (338.15 K, x1 = 0.606): 1034.5 kg/m3 | mass density (338.15 K, x1 = 0.884): 1027.8 kg/m3 | mass density (338.15 K, x1 = 1): 1025.6 kg/m3 | mass density (343.15 K, x1 = 0.285): 1041.2 kg/m3 | mass density (343.15 K, x1 = 0.478): 1035.1 kg/m3 | mass density (343.15 K, x1 = 0.606): 1031.2 kg/m3 | mass density (343.15 K, x1 = 0.789): 1026.8 kg/m3 | mass density (348.15 K, x1 = 0.21): 1038.9 kg/m3 | mass density (348.15 K, x1 = 0.285): 1037.4 kg/m3 | mass density (348.15 K, x1 = 0.369): 1035.5 kg/m3 | mass density (348.15 K, x1 = 0.478): 1031.7 kg/m3 | mass density (348.15 K, x1 = 0.606): 1027.9 kg/m3 | mass density (348.15 K, x1 = 0.789): 1023.7 kg/m3 | mass density (348.15 K, x1 = 0.884): 1021.8 kg/m3 | mass density (348.15 K, x1 = 1): 1019.8 kg/m3
